Out of some 360,000 compounds screened, about 16,000 (4.4%) were called active. Inconclusive results, whose numbers are uncertain, are shown with a selection of clear calls. The call rests on the fitted dose curve; in most records, active means well fitted inhibition curve with a large enough effect; inconclusive means small, poorly fitted or top-dose-only effect; inactive means no such curve, though single readings can be large or run the other way. Potencies of inconclusive entries are doubtful fits and often do not repeat.
Target: Bromodomain adjacent to zinc finger domain protein 2B (Homo sapiens) (UniProt Q9UIF8)
UniProt Q9UIF8, sequence (Q9UIF8 whole entry, looked up, the tested form may be a part): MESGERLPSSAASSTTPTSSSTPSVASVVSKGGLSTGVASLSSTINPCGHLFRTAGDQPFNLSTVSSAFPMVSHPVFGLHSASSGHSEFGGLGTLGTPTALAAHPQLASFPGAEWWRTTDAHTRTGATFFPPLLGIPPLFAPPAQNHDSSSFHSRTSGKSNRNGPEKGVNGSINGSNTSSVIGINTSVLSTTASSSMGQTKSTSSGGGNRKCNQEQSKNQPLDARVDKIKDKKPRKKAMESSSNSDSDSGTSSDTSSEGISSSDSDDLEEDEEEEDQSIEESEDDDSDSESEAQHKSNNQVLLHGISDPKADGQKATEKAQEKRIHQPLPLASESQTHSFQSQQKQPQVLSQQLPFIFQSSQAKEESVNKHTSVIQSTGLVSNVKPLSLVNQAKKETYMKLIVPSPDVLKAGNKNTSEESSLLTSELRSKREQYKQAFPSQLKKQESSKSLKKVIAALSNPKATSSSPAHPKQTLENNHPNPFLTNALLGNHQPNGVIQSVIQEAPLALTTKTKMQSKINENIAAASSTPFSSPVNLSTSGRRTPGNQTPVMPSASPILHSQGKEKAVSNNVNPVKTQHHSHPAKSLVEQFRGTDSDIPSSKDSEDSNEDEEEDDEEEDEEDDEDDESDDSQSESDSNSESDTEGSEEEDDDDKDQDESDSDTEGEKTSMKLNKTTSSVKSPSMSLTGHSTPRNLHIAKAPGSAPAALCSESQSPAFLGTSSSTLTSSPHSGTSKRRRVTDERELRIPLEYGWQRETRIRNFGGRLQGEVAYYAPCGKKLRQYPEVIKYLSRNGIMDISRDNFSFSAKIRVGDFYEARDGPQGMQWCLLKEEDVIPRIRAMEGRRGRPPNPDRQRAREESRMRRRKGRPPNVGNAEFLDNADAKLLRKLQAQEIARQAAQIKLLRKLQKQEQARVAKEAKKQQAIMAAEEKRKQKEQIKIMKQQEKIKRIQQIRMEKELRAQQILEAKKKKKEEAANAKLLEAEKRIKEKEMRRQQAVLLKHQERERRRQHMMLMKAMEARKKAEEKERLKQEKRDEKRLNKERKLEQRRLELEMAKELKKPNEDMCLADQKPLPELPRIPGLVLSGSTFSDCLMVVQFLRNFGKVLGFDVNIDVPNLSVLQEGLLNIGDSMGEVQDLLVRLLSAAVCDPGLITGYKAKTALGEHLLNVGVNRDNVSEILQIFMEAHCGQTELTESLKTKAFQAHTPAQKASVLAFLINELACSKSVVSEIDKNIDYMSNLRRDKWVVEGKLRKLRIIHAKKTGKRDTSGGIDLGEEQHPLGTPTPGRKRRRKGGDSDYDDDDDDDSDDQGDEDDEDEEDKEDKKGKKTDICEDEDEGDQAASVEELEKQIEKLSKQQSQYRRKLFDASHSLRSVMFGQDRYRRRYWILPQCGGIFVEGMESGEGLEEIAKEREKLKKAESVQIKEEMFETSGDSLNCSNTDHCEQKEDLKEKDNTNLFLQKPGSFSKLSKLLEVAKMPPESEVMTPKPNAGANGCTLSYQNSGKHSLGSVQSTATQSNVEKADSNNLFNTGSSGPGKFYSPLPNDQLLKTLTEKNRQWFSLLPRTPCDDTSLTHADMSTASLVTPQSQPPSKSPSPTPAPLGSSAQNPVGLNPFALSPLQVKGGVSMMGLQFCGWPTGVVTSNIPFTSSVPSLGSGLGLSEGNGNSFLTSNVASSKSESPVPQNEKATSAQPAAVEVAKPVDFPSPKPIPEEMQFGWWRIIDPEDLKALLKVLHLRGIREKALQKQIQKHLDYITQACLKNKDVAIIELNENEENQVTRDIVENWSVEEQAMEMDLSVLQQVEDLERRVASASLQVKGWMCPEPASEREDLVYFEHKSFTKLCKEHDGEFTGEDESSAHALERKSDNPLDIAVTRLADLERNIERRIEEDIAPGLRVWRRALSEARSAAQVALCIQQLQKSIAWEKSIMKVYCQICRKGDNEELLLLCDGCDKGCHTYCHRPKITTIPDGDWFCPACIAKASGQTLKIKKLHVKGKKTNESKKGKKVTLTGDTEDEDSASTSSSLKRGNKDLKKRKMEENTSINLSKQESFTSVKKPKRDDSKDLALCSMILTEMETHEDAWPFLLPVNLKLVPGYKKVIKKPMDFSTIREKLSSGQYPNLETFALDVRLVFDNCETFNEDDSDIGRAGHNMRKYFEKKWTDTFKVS
Experiment: qHTS Assay for Inhibitors of BAZ2B; further: nearly all actives have a fitted effect of over 60% in size
Conditions: AlphaScreen BAZ2B-H3K14Ac peptide displacement; activity change, negative = inhibition: at 114 µM (top of the series)
How it was run: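 AlphaScreen displacement: compounds (up to 110uM) incubated 30 min at room temperature with a preformed 50 nM BAZ2B/50 nM biotinylated H3K14Ac peptide complex in PBS pH 7.4 with Tween-20. Donor and acceptor beads at 10 ug/mL final added, 20 min light-protected before reading.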
On the % scale 0 is the no-effect control and ±100 the full control effect; potency means the concentration at half of the fitted maximal effect; tags describe the fitted curve by direction and shape.

| SMILES | Potency | activity change, negative = inhibition |
| --- | --- | --- |
| CC1CC(Nc2ccccc2)c2ccccc2N1C(=O)c1ccco1 (configuration not stated) | inconclusive: 79.4 µM [inhibitor, single point] | – |
| Cc1cccc(N2CCN(S(=O)(=O)c3ccc4c(c3)NC(=O)CO4)CC2)c1C | inconclusive: 39.8 µM [inhibitor, full curve, poor fit] | – |
| C=C(C)C1CC=C(CN2CCN(Cc3ccccc3)CC2)CC1 (configuration not stated) | – | inactive: -35.4% |
| Cc1ccc(NC(=O)COc2ccc(/C=N\NC(=O)c3cccnc3)cc2)cc1C | active: 56.2 µM | – |
| O=C(c1cccc(Cl)c1)N1CCN(C2CCCCCC2)CC1 | active: 44.7 µM | – |
| Cn1cc(C(=O)C(=O)NCCc2ccccc2)c2ccccc21 | inconclusive: 1 µM [inhibitor, full curve] | – |
| O=C(Cc1ccc(Cl)c(Cl)c1)Nc1ccccc1N1CCCC1 | inconclusive: 28.2 µM [inhibitor, full curve] | – |
| COc1ccc(NCc2ccsc2)cc1 | active: 17.8 µM | – |
| CCc1ccc(CN(Cc2ccco2)C(=O)c2ccccc2Cl)cc1 | – | inactive: 28.6% |
| Cc1cc(OCC(=O)Nc2ccc(CN3CCCCC3)cc2)ccc1Cl | inconclusive: 79.4 µM [inhibitor, single point] | – |
| CCNc1nc(NCC)nc(C(=O)NN)n1 | active: 2.82 µM | – |
| COc1ccc(S(=O)(=O)N2CCOCC2)cc1NC(=O)c1cccc(-n2cccc2)c1 | inconclusive: 39.8 µM [inhibitor, partial curve, poor fit] | – |
| CSc1ccc(CN2CCC(n3nccc3NC(=O)CCCc3ccccc3)CC2)cc1 | – | inactive: -26% |
| CCCCCC(=O)Nc1nc(C)c(-c2csc(Nc3cc(Cl)ccc3OC)n2)s1 | inconclusive: 50.1 µM [inhibitor, partial curve] | – |
| COc1ccc(C2(O)CN(c3ccccc3)C3=[N+]2CCS3)cc1OC (configuration not stated) | active: 70.8 µM | – |
| Cc1ccc(NNC(=O)c2ccc(Cl)cc2)nn1 | inconclusive: 70.8 µM [inhibitor, single point] | – |
| COc1cccc(C(=O)N2CCN(Cc3ccc4c(c3)OCO4)CC2)c1OC | active: 79.4 µM | – |
| CCc1nnc(NC(=O)CN2CCN(c3nc(-c4ccccc4)cs3)CC2)s1 | inconclusive: 44.7 µM [inhibitor, partial curve] | – |
| COc1ccccc1-n1cnnc1SCC(=O)Nc1cc(C(C)(C)C)nn1-c1ccccc1 | – | inactive: -1.35% |
| CCOC(=O)C1CCN(c2c(C(=O)c3ccccc3)cnc3ccc(Cl)cc23)CC1 | – | inactive: -38.4% |
| CC1(C)Cc2ccccc2/C(=C/C(=O)c2ccccc2)N1 | inconclusive: 22.4 µM [inhibitor, partial curve] | – |
| Cc1oc(-c2ccc(Cl)cc2)nc1CN1CCC(C(=O)NCc2ccco2)CC1 | inconclusive: 79.4 µM [inhibitor, single point] | – |
| CCOc1ccc(S(=O)(=O)N2CCCC(C(=O)N3CCCC3)C2)cc1 (configuration not stated) | – | inactive: -2.14% |
| O=[N+]([O-])c1ccccc1S(=O)(=O)N1CCN(Cc2ccc3c(c2)OCO3)CC1 | active: 50.1 µM | – |

| SMILES | Potency | activity change, negative = inhibition |
| --- | --- | --- |
| OC(c1cccs1)c1nccc2ccccc12 (configuration not stated) | inconclusive: 89.1 µM [inhibitor, single point] | – |
| COc1cc([C@H](Cc2ccccc2)NC(C)=O)oc(=O)c1 | inconclusive: 79.4 µM [inhibitor, single point] | – |
| CCOC(=O)C1CCN(Cc2cn[nH]c2-c2ccccc2)CC1 | inconclusive: 89.1 µM [inhibitor, single point] | – |
| COc1ccc(NC(=O)C2CCN(c3ncnc4c3nc3n4CCCCC3)CC2)c(OC)c1 | inconclusive: 50.1 µM [inhibitor, partial curve] | – |
| CN(C)CCN(C(=O)/C=C/c1cccs1)c1nc2c(F)cc(F)cc2s1 | inconclusive: 79.4 µM [inhibitor, single point] | – |
| CC1CC(C(F)(F)C(F)(F)F)n2nc(C(=O)O)cc2N1 (configuration not stated) | inconclusive: 89.1 µM [inhibitor, single point] | – |
| COc1ccc(Cl)cc1NC(=O)c1nnn(CC(=O)Nc2ccc3c(c2)OCO3)c1N | inconclusive: 79.4 µM [inhibitor, single point] | – |
| CCCCNC(=O)C1CCN(Cc2ccc(OCc3ccccc3)c(OC)c2)CC1 | inconclusive: 89.1 µM [inhibitor, single point] | – |
| CCNc1nc(-c2ccc(OC(F)F)cc2)c(C)s1 | – | inactive: -29.3% |
| COc1ccc([N+](=O)[O-])cc1NC(=O)COC(=O)c1ccccn1 | inconclusive: 79.4 µM [inhibitor, single point] | – |
| CCOC(=O)c1c(C)[nH]c(C)c1C(=O)COC(=O)c1c(OC)cccc1OC | inconclusive: 50.1 µM [inhibitor, partial curve] | – |
| CCOc1cc(CNc2ccc(N(C)C)cc2)cc(Br)c1OCC(=O)NC(C)(C)C | active: 14.1 µM | – |
| CC(=O)c1c(C)n(CCO)c2ccc(O)cc12 | inconclusive: 89.1 µM [inhibitor, single point] | – |
| CCNC(=S)N(CCc1c(C)[nH]c2ccc(C)cc12)Cc1cccnc1 | inconclusive: 50.1 µM [inhibitor, partial curve] | – |
| CCn1c(C(=O)N2CCC(C(=O)N3CCN(c4cccc(C)c4C)CC3)CC2)cc2sccc21 | active: 22.4 µM | – |
| CNS(=O)(=O)c1cc(N)ccc1C | – | inactive: -4.94% |
| CCOc1ccc(CCNC(=O)CCS(=O)(=O)c2ccc(OC)cc2)cc1OCC | inconclusive: 44.7 µM [inhibitor, partial curve] | – |
| COC(=O)c1sc(NC(=S)NNC(=O)c2c(Br)c(C)nn2C)c(C(=O)OC)c1C | active: 25.1 µM | – |
| Cc1cc(N2CCN(c3ccccc3Cl)CC2)n2cc(-c3ccccc3)nc2n1 | inconclusive: 35.5 µM [inhibitor, partial curve] | – |
| CC(=O)Nc1ccc(Nc2ncnc3c2c(-c2ccccc2)cn3-c2ccccc2)cc1 | inconclusive: 3.16 µM [inhibitor, full curve, poor fit] | – |
| COc1ccc(S(=O)(=O)n2oc(=O)cc2-c2ccccc2)cc1OC | active: 56.2 µM | – |
| CCSc1nnc(NC(=O)C2CC=CCC2C(=O)O)s1 (configuration not stated) | inconclusive: 89.1 µM [inhibitor, single point] | – |
| CCOc1ccc(OCC)c(NC(=O)C2CCCN(S(=O)(=O)c3ccc4c(c3)oc(=O)n4C)C2)c1 (configuration not stated) | – | inactive: -17.5% |
| CCOc1ccc(CNC(=O)Cn2c(=O)c3cccn3c3ccc(F)cc32)cc1 | inconclusive: 89.1 µM [inhibitor, single point] | – |

| SMILES | Potency | activity change, negative = inhibition |
| --- | --- | --- |
| COc1cccc(NC(=O)[C@H](Cc2ccccc2)NC(=O)[C@@H]2Cc3ccccc3CN2)c1 | inconclusive: 56.2 µM [inhibitor, single point] | – |
| CC(CC(=O)O)CC1=NS(=O)(=O)c2ccccc2N1 (configuration not stated) | – | inactive: 2.82% |
| COc1cccc(N2CCN(C(=O)C3CCCN(S(=O)(=O)c4ccc(Br)s4)C3)CC2)c1 (configuration not stated) | inconclusive: 22.4 µM [inhibitor, full curve, poor fit] | – |
| COC(=O)c1ccccc1NC(=O)c1nc2nc(C)cc(C)n2n1 | – | inactive: -5.51% |
| Cc1ccc(-c2nc(NCc3ccco3)n(C(=O)c3ccco3)n2)cc1 | – | inactive: 8.44% |
| N#C/C(=C\c1cccs1)C(=O)c1ccccc1 | inconclusive: 35.5 µM [inhibitor, partial curve] | – |
| CCNc1c([N+](=O)[O-])ncn1C | – | inactive: -16.1% |
| CCOc1ccc2cc(C3CC(c4ccco4)=NN3S(=O)(=O)c3ccccc3)c(Cl)nc2c1 (configuration not stated) | inconclusive: 20 µM [inhibitor, full curve, poor fit] | – |
| CCc1cc(=O)oc2cc(C)cc(OCC(=O)NC(Cc3c[nH]c4ccc(O)cc34)C(=O)O)c12 (configuration not stated) | inconclusive: 89.1 µM [inhibitor, single point] | – |
| CCCCn1c(NCc2cccs2)nc2ccccc21 | – | inactive: -1.91% |
| C=CCn1c(SCC(=O)Nc2ccc(N(C)C)cc2)nnc1-c1cccc(C)c1 | active: 44.7 µM | – |
| C=CCN1C(=O)C2(NNc3ccccc3O2)c2ccccc21 (configuration not stated) | inconclusive: 44.7 µM [inhibitor, partial curve] | – |
| Cc1nnc(NC(=O)CSc2nccn2C)s1 | – | inactive: 10.9% |
| CC1=C/C(=C\c2ccc3c(c2)OCO3)C(=O)S1 | inconclusive: 25.1 µM [inhibitor, full curve] | – |
| CCOc1cc(NC(=S)NCC2CCCO2)c(OCC)cc1NC(=O)c1ccccc1F (configuration not stated) | inconclusive: 17.8 µM [inhibitor, full curve] | – |
| Cc1ccccc1Oc1cc(NC(=O)Cn2cnc([N+](=O)[O-])c2)cc([N+](=O)[O-])c1 | inconclusive: 22.4 µM [inhibitor, full curve] | – |
| COc1ccc(-n2nnnc2-c2cccnc2)cc1 | – | inactive: 1.89% |
| CC(C)N(C(=O)COC(=O)c1cccc(C(=O)OCC(=O)N(C(C)C)C(C)C)n1)C(C)C | inconclusive: 89.1 µM [inhibitor, single point] | – |
| CSc1nsc(/C=C/Nc2ccc(Cl)cc2)c1C#N | inconclusive: 89.1 µM [inhibitor, single point] | – |
| Cc1cccc(N2CCN(C(=O)Cn3cccc3)CC2)c1C | inconclusive: 79.4 µM [inhibitor, single point] | – |
| Cc1ccc(CNC(=O)Cn2ncc3c(C)n(Cc4ccc(Cl)cc4)c(C)c3c2=O)cc1 | – | inactive: -0.442% |
| N#Cc1ccc(-c2nc3ccccc3c(=O)n2O)cc1 | inconclusive: 79.4 µM [inhibitor, single point] | – |
| O=C1CC(SCc2nc3ccccc3[nH]2)C(=O)N1c1ccc(F)c(Cl)c1 (configuration not stated) | inconclusive: 6.31 µM [inhibitor, full curve] | – |
| COc1ccc(NC(=O)c2cccc(Oc3ccc([N+](=O)[O-])cc3Cl)c2)cc1 | inconclusive: 25.1 µM [inhibitor, full curve, poor fit] | – |

Reference: PubChem BioAssay AID504333 (National Center for Advancing Translational Sciences (NCATS), 2011)
